# Laboratory results as given in publication PMC4336329 (PLoS ONE, 2015).
# About 2,200 (0.71%) of roughly 310,000 compounds showed an effect of 50% or more. Effects have a minus sign here. The list shows a part of the results.
# Molecular target: human ether-à-go-go-related gene (hERG) potassium channel (human, UniProt Q12809)
# Assay: primary screen, population patch clamp on CHO cells stably expressing hERG
# Chain of human ether-à-go-go-related gene (hERG) potassium channel (Q12809 whole entry, looked up): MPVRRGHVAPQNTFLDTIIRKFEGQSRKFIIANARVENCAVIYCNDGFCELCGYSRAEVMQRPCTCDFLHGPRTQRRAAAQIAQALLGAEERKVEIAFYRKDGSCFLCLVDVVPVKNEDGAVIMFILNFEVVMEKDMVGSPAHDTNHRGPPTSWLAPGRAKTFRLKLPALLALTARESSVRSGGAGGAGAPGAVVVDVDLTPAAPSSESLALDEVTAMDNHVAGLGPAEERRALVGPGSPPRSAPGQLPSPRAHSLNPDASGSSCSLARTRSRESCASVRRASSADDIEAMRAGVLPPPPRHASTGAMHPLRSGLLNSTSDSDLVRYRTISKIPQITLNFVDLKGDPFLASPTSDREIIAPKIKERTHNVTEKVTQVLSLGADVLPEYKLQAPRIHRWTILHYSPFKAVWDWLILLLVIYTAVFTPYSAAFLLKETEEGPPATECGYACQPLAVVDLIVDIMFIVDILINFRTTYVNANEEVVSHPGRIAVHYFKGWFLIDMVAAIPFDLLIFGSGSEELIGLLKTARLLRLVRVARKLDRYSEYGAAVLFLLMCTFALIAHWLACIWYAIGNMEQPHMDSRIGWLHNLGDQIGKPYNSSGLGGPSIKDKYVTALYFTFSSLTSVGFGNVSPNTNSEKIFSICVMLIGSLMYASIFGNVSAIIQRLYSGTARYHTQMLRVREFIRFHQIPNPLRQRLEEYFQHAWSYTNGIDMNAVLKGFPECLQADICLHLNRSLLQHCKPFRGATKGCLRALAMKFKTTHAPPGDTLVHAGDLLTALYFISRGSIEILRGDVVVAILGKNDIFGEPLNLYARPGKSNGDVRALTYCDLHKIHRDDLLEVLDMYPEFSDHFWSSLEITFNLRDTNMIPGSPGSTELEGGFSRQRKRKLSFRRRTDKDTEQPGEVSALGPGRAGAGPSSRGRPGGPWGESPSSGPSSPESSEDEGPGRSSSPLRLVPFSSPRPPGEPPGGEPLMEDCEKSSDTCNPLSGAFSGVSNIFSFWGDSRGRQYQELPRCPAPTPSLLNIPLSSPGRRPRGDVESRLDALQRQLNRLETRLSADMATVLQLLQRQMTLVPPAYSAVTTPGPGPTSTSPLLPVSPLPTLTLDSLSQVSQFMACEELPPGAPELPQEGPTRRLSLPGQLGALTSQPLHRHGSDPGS
row,SMILES,"hERG current change (%, negative = inhibition) at 1uM [%]"
1,O=C(O)c1cccc(Nc2ccc3nonc3c2[N+](=O)[O-])c1,5.77
2,Cc1ccc(CN(C)C(=O)c2ccc(NS(=O)(=O)c3ccc4[nH]c(=O)[nH]c4c3)cc2)cc1,20.3
3,O=C(COC(=O)c1cc(S(=O)(=O)N2CCOCC2)ccc1F)Nc1ccc(Cl)cn1,-2.03
4,CCOc1ccc(S(=O)(=O)N2CCOCC2)cc1NC(=O)CN1C(=O)NC2(CCCC2)C1=O,12.7
5,CCN(c1ccccc1)S(=O)(=O)c1cc(C(=O)Oc2ccc3c(C)cc(=O)oc3c2)ccc1C,1.76
6,COc1ccc(-c2ccnc3cc(C(=O)O)nn23)cc1,18.7
7,C/C=C/c1ccc(OCCn2cncn2)c(OC)c1,4.5
8,CC(C)N1CCC(NC(=O)NC2CCCCC2)CC1,12.8
9,CCOc1ccc(NC(=S)N2CCN(S(C)(=O)=O)CC2)cc1,10.9
10,O=C(c1ccc2c(c1)N(Cc1ccc(F)cc1)C(=O)CS2)N1CCOCC1,-1.67
11,CN(C)C(=O)c1cc(C(=O)c2ccccc2C(F)(F)F)c[nH]1,7.42
12,CC(C)Cc1nnc(NC(=O)c2ccc3c(c2)NC(=O)C(C)S3)s1 (stereo not shown),-9.27
13,CN(C)c1nc(NS(=O)(=O)c2ccc(Cl)cc2)nc(N(C)C)n1,-6.7
14,O=C(CN1CCSCC1)N/N=C/c1ccccc1F,-6.58
15,CO/N=C(/CNC(=O)c1cccc(Cl)c1)c1ccc(Cl)cc1,11.6
16,O=C(c1cc(C2CC2)nc2ccc(Br)cc12)N1N=C(C(F)F)CC1(O)C(F)F (stereo not shown),2.1
17,O=C(Nc1ccccc1)Nc1ccc(Nc2ccccc2)cc1,11.6
18,O=C(O)CC/C(=N\Nc1ccc(Cl)cc1)c1cccs1,18.5
19,Cc1cc(=O)oc2cc(OCC(=O)NC3CCCCC3)ccc12,-9.25
20,CC1CCN(c2nc3ccccc3nc2C(C#N)C(=O)OC2CCCCC2)CC1 (stereo not shown),10.8
21,COC(=O)CC(=O)CSc1nc2c(cc1C#N)CCC2,13.6
22,NC(=O)c1ccc(Nc2ccc3nonc3c2[N+](=O)[O-])cc1,14.1

row,SMILES,"hERG current change (%, negative = inhibition) at 1uM [%]"
1,Cc1ccc(N2CCN(CC3CC=CCC3)CC2)cc1 (stereo not shown),-8.75
2,Cc1cc(C)nc(N/N=C/c2ccccc2OCc2ccccc2)n1,9.26
3,Cc1ccc(-c2nn(-c3ccccc3)cc2C(=O)OCC(=O)Nc2ncc(Cl)cc2Cl)cc1,6.91
4,O=C(CSc1nnnn1-c1ccccc1)Nc1nc(-c2ccccc2)ns1,14.1
5,CCOC(=O)/C(N=Nc1ccc(Cl)cc1)=C(/O)c1ccc([N+](=O)[O-])cc1,8.05
6,CCN(CC)C(=O)c1[nH]cnc1C(=O)Nc1ccc(Cl)cc1,15.1
7,Cc1cccc(N2C(=O)CC(N(C(=O)c3ccco3)c3cccc(C)c3)C2=O)c1 (stereo not shown),5.25
8,COc1ccccc1NC(=O)CCSc1nnc(-c2ccco2)o1,9.46
9,CC1CCN(c2ccccc2NC(=O)c2cc([N+](=O)[O-])ccc2N2CCOCC2)CC1,3.41
10,O=C(OCC(=O)c1ccc(Cl)s1)c1ccc2ccccc2n1,4.97
11,COc1ccc(-n2c(=O)c3c4c(sc3n3cnnc23)CC(C)CC4)cc1 (stereo not shown),9.85
12,CC(=O)Nc1ccc(S(=O)(=O)N[C@H](C(=O)O)C(C)C)cc1,7.15
13,CN(C(=O)c1ccno1)c1nnc(-c2cnccn2)s1,8.19
14,CC(C)(C)OC(=O)CNC(=O)c1nc[nH]c1C(=O)NCc1ccc(CNC(=O)OC(C)(C)C)cc1,-1.31
15,S=c1[nH]nc(-c2ccc(Br)cc2)n1-c1ccc2c(c1)OCCO2,10.9
16,CSc1cccc(NC(=O)/C=C/c2ccc(Cl)cc2)c1,7.98
17,CC(C)(C)C1CCc2onc(C(=O)NC3CCCC3)c2C1 (stereo not shown),-7.7
18,COc1ccc(/C=N/NC(=O)CCc2n[nH]c(=O)[nH]c2=O)cc1OC,2.86
19,O=C(Cn1nnc2ccccc2c1=O)NC1CCCc2ccccc21 (stereo not shown),5.76
20,Cc1ccc(NC(=O)COC(=O)CCn2c(C)csc2=O)c([N+](=O)[O-])c1,7.32
21,O=c1[nH]c2ccccc2nc1/C=C/c1ccccc1,17.5
22,Cc1oc2c(c(C)cc3oc(=O)c(CC(=O)NCCCO)c(C)c32)c1C,15.8

row,SMILES,"hERG current change (%, negative = inhibition) at 1uM [%]"
1,CS(=O)(=O)Nc1ccc(C(=O)NC2CCCCC2)cc1,9.45
2,O=C(CSc1ccc2nnc(-c3ccc(Cl)cc3)n2n1)N1CCc2ccccc21,4.23
3,COC(=O)CCC(=O)OC1(C)C(=O)C2=CN(CCCCO)C(c3ccc(OC)cc3)=CC2=C(Br)C1=O (stereo not shown),7.75
4,COCCn1c(C)cc(C(=O)COC(=O)CCS(=O)(=O)c2ccc(C)cc2)c1C,-4.18
5,Cc1ccc(NC(=S)NNC(=O)c2ccccc2O)c(C)c1,20.9
6,Cc1c(C)c2c(OCC(=O)N3CCC[C@H]3C(=O)O)cc3c(c2oc1=O)CCC(C)(C)O3,12.3
7,CC(C)(C)NS(=O)(=O)c1ccc(CCC(=O)N2CCOCC2)cc1,-5.42
8,CCC1CCc2sc(C(=O)N3CCN(c4ccccn4)CC3)cc2C1 (stereo not shown),-2.83
9,O=C(Nc1ccc2c(c1)OCCO2)C1CCN(S(=O)(=O)Cc2ccccc2)CC1,11.6
10,CCOc1c(Br)cc(CNC2CCCCCCC2)cc1OC.Cl,5.48
11,O=[N+]([O-])c1cc(Cl)c(Cl)cc1Cl,9.77
12,O=C1CSC(c2ccncc2)N1Cc1ccccc1 (stereo not shown),20.7
13,Cc1ccc(C2=NN3C(C2)c2ccccc2OC32C(=O)Nc3ccccc32)cc1 (stereo not shown),6.78
14,O=C(NCc1cccnc1)C1CCCN(S(=O)(=O)c2ccccc2)C1 (stereo not shown),6.03
15,Nc1ccc(C(=O)Oc2ccc([N+](=O)[O-])cc2)cc1,14.1
16,COc1cccc(N2CCN(C(=O)CSc3ccc(F)cc3)CC2)c1,-4.49
17,COc1ccc(NCc2ccc([N+](=O)[O-])s2)c(OC)c1,-2.19
18,COc1ccc(Nc2nc(C)c3ccccc3n2)cc1,-4.17
19,CC(=O)/C(C[N+]1(C)CCCCC1)=N\O.[I-],15.1
20,CCOc1ccc(C(=O)NC(C(=O)NCCc2ccc(OC(F)F)cc2)C(C)C)cc1 (stereo not shown),-21.9
21,CNC(=O)c1ncoc1-c1ccc(Cl)cc1,7.99
22,CN(C(=O)c1ccc(NC(=O)Cc2ccc(NC(=O)C3CCN(C(=O)C4CCCC4)CC3)cc2)cc1)C1CC1,20.8

row,SMILES,"hERG current change (%, negative = inhibition) at 1uM [%]"
1,Cn1c(=O)c2c(ncn2CC(COCc2ccc(Cl)cc2)OCc2ccc(Cl)cc2)n(C)c1=O (stereo not shown),-4.17
2,Cc1cc(OCC(=O)NCCCN(C)C)cc(C)c1Br,15.5
3,CCC1(c2ccccc2)C(=O)NCNC1=O,3.37
4,CCOc1ccc(N(C(=O)/C=C/C(=O)Nc2cc(C)on2)C(C(=O)NC2CCCC2)c2ccccc2C)cc1 (stereo not shown),4.64
5,Cn1c(SCC(=O)N2CCCc3ccccc32)nnc1-c1ccccc1,-3.28
6,c1ccc(-c2ccccc2OCCCCn2ccnc2)cc1,5.64
7,CCCC(=O)c1c[nH]c(C(=O)NCCCN2CCOCC2)c1,8.7
8,COc1cc(C(=O)N2CCN(C(=O)c3ccco3)CC2)cc(OC)c1OC,1.52
9,O=C(COC(=O)c1ccc2ncsc2c1)NC(=O)NCc1ccccc1,8.32
10,O=C1C2ON(c3ccccc3)C(c3ccncc3)C2C(=O)N1c1ccc(N2CCOCC2)cc1 (stereo not shown),8.31
11,Cc1occc1-c1nnc(SCC(=O)NCCc2ccccc2)n1Cc1ccccc1,-17.8
12,NC(=O)C1CCN(C(=O)CCSCc2ccccc2)CC1,14
13,COC(=O)c1[nH]c2ccccc2c1NC(=O)CN1CCN(c2cccc(Cl)c2)CC1,12.5
14,Cc1cccc(C)c1NC(=O)CC(C)c1ccccc1 (stereo not shown),5.93
15,Cc1cccn2c(=O)c3cc(C(=O)NCc4ccco4)c(=N)n(C(C)C)c3nc12,-84.9
16,CN(C(=O)COC(=O)/C=C/c1ccc(C(F)(F)F)cc1)c1c(N)n(Cc2ccccc2)c(=O)[nH]c1=O,8.48
17,COc1cccc([C@@H]2CC=C(C(=O)O)[C@H](c3cccc(Cl)c3)N2S(=O)(=O)c2ccc(C)cc2)c1,9.08
18,O=C(CSCc1ccc(F)cc1)N1CCOCC1,0.424
19,Cc1ccc(S(=O)(=O)N2CCOCC2)cc1C(=O)NCc1ccccn1,6.43
20,Cc1ccc(-n2c3c(cc(C(=O)NC4CCSC4=O)c2=O)C(=O)CC(C)(C)C3)cc1 (stereo not shown),11.6
21,O=C(NCCCN1CCCC1=O)c1ccc(OCc2ccccc2)cc1,9.46
22,Cc1cc(C(=O)COC(=O)c2ccc(NC(=O)CC#N)cc2)c(C)n1CCc1ccc(F)cc1,6.78
